Test results reported in paper PMC12040169 (PLOS Biology, 2025).
This is one part of the list.

Each compound was assayed on T1, C. trachomatis L2/434/Bu expressing GFP (CTL2-GFP). Details: total inclusion area; 28.5 h, 10 µM; inhibitor.
T1 construct: L2/434/Bu GFP intracellular growth in HeLa cells
Set-up: species or system HeLa; C. trachomatis total inclusion area by high-content imaging, normalised to DMSO
Outline: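 Host cell viability was gauged from Hoechst-stained nuclei counts, while chlamydial growth was taken from total inclusion area and inclusion number per well. Cells were fixed and imaged by high-content microscopy once bulk GFP and resorufin fluorescence had been measured.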

SMILES	% of control remaining
Cc1cc(OCc2nnc(SCC(=O)Nc3ccc(I)cc3)n2C)ccc1Cl [CBK268600]	96.0022
CC(=O)N1CCN(c2ccc(OCCO)cc2)CC1 [CBK001978]	95.6984
Nc1nnc(SCC(=O)NC23CC4CC(CC(C4)C2)C3)s1 [CBK267417]	115.788
O=C(Cc1ccccn1)N1CCC(c2cccc(Cc3ccc(C(F)(F)F)cc3)n2)CC1 [CBK286224]	77.3273
CCCNC(=O)CN1C(=O)N2CCCN=C2c2ccc(Cl)cc21 [CBK284389]	95.8872
Cc1ccc(C(=O)NC2CCN(C(=O)Nc3cc(Cl)ccc3F)CC2)s1 [CBK305243]	80.1903
Cc1ccc(Cl)c(N2CCN(CCCn3c(=S)[nH]c4ccccc4c3=O)CC2)c1 [CBK268011]	93.9958
CCc1nc2ccc(C(=O)NCCN3CCCC3)cn2c1N(C)C(=O)c1ccncc1 [CBK146655]	122.295
COc1ccc(CN2/C(=N/c3ccccc3)S[C@H]3[C@@H]2[C@@H](O)[C@H](O)C[C@@H]3C(N)=O)cc1 [CBK288941]	119.382
COc1cncc(-c2cnc(N)c(N[C@@H](CO)C(C)C)n2)c1 [CBK063734]	69.0861
O=C(O)c1ccc(NC(=O)c2nccnc2C(=O)O)cc1 [CBK260916]	107.285
Fc1ccccc1CN1CCC(Oc2nccnc2OCc2cccnc2)CC1 [CBK083157T]	86.3499
COC(=O)c1cccc(CCC2CC(=O)C=C(O)C2)c1 (stereo not drawn) [CBK012720]	79.7172
CS(=O)(=O)Nc1nccnc1OC1CCN(CCc2ccccn2)CC1 [CBK084286]	75.9903
CC(C)(C)c1cc(CC2(NCc3ccco3)COC2)no1 [CBK289642]	124.453
COCC1CCCN(Cc2ccc(Br)cc2)C1 (stereo not drawn) [CBK304624]	63.7807
Clc1ccc(CNC2CCCCC2NCc2ccc(Cl)nc2)cn1 (stereo not drawn) [CBK025983]	69.8159
COCc1cccc(-c2ccc(C(=O)N(C)CCN(C)C)c(N(C)C)n2)c1 [CBK106091]	96.0271
CC(=O)c1c(C)nn(C(C)CC(=O)Nc2ccc(Cl)c(Cl)c2)c1C (stereo not drawn) [CBK270021]	77.7681
O=C(CC1OCCc2ccsc21)N1CCCC(n2cccn2)C1 (stereo not drawn) [CBK305154]	103.415
O=C(O)c1ccc(CN2CC[C@H](c3nc4ccccc4o3)C2)cc1 [CBK289387]	113.801
O=C(O)c1cc(S(=O)(=O)NCCCN2CCOCC2)ccc1Cl [CBK299804]	81.4357
Cc1cc2c(cc1C)NC(CC(=O)Nc1cccc(Br)c1)C(=O)N2 (stereo not drawn) [CBK269548]	69.9439
COc1ccc(OC)c(NC(=O)c2ccccc2C(=O)O)c1 [CBK287082]	116.973
COc1ccccc1-c1nccnc1OCCc1ccc(NC(C)=O)cc1 [CBK106815]	94.1265
Cc1c(C(=O)N2CCCCC2C(N)=O)nnn1-c1cccc(Cl)c1 (stereo not drawn) [CBK305490]	98.1815

SMILES	% of control remaining
COc1ccc(CCN(Cc2ccc(Cl)c(Cl)c2)C(=O)Nc2cccnc2)cc1OC [CBK158797]	81.8961
O=C(O)C1CCCCC1C(=O)Nc1ccc(S(=O)(=O)N2CCCCC2)cc1 (stereo not drawn) [CBK267950]	92.315
O=C(c1ccco1)N1CCC(n2nc(C3CC3)ccc2=O)CC1 [CBK282350]	80.0015
CC(=O)Nc1ccc(/C=N/NC(=O)c2nnn(-c3nonc3N)c2-c2ccccc2)cc1 [CBK262790]	86.0371
COc1ccc(N2CCN(/C(=N/S(=O)(=O)c3ccccc3)Nc3nc(C)cc(C)n3)CC2)cc1 [CBK266750]	83.3031
CC(Oc1ccccc1)C(=O)N1CCN(CCO)CC1 (stereo not drawn) [CBK267428]	96.6239
CC(C)N1C(=O)C2(CC(=O)N(CCCN3C(=O)c4ccccc4C3=O)C2=O)c2cc(F)ccc21 (stereo not drawn) [CBK075969]	98.1011
O=C(O)CCCn1cc(NC(=O)CCc2ccccc2)cn1 [CBK287055]	82.663
CC(C)c1cc(C(=O)NCCN2CCc3ccccc32)n(C)n1 [CBK282685]	93.2502
Cc1ccc(NC(=O)c2cnc3scc(C)n3c2=O)cc1 [CBK287454]	89.6792
CCn1ncc(CN(C)C(=O)CCN2CCCCCC2=O)c1C [CBK306718]	95.1163
Cc1ccccc1-c1ocnc1C(=O)NCc1ccco1 [CBK282408]	110.957
CC(CC(=O)O)CC(=O)NNc1ncc(Cl)cc1Cl (stereo not drawn) [CBK264398]	100.117
Cn1c(N2CC[C@H](O)C2)nc2cc(C(=O)NC3CCCC3)ccc21 [CBK306779]	95.4717
CC(=O)Nc1ccc(S(=O)(=O)N2CCN(S(=O)(=O)N(C)C)CC2)cc1 [CBK266545]	119.421
O=C(Nc1ccc(Br)c2cccnc12)c1ccc(COc2ccccc2)cc1 [CBK266062]	98.2607
CCC(CC(=O)NCc1c(C)n[nH]c1C)c1c[nH]c2ccccc12 (stereo not drawn) [CBK282651]	116.008
Nc1cccc(Sc2cccc(C(F)(F)F)n2)c1 [CBK115239]	77.3544
Cc1ccc(NC(=O)N(C)C2CCN(C)C2)cc1 (stereo not drawn) [CBK156023]	47.1735
CN(CC(=O)Nc1ccc([N+](=O)[O-])cc1)S(=O)(=O)c1ccc2ccccc2c1 [CBK267422]	91.6621
COCCOC(=O)N1CCC(C(=O)NC(c2ccc(Cl)cc2)c2cccs2)CC1 (stereo not drawn) [CBK059702]	87.4843
CC1=CC(C)C(CN2CC34C=CC(O3)C(C(=O)O)C4C2=O)C(C)C1 (stereo not drawn) [CBK287005]	110.937
OCc1ccc(-c2nccnc2NCc2ccccn2)cc1 [CBK037088]	106.518
Fc1cccc(-c2nc3cnccn3c2NC2CCCC2)c1 [CBK283780]	97.3406
Cc1ccc(CC(=O)N2CCC(Cc3ccccc3-c3ccccc3)(C(N)=O)CC2)cc1 [CBK285740]	95.08
